Structures are written as SMILES. About 14,000 (4.5%) of roughly 310,000 compounds showed an effect of 50% or more. Effects have a minus sign here. Some of the results follow.
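Also: peak tail current of the secondary pulse compared with the same well before compound.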

Chain of human ether-à-go-go-related gene (hERG) potassium channel (Q12809 whole entry, looked up): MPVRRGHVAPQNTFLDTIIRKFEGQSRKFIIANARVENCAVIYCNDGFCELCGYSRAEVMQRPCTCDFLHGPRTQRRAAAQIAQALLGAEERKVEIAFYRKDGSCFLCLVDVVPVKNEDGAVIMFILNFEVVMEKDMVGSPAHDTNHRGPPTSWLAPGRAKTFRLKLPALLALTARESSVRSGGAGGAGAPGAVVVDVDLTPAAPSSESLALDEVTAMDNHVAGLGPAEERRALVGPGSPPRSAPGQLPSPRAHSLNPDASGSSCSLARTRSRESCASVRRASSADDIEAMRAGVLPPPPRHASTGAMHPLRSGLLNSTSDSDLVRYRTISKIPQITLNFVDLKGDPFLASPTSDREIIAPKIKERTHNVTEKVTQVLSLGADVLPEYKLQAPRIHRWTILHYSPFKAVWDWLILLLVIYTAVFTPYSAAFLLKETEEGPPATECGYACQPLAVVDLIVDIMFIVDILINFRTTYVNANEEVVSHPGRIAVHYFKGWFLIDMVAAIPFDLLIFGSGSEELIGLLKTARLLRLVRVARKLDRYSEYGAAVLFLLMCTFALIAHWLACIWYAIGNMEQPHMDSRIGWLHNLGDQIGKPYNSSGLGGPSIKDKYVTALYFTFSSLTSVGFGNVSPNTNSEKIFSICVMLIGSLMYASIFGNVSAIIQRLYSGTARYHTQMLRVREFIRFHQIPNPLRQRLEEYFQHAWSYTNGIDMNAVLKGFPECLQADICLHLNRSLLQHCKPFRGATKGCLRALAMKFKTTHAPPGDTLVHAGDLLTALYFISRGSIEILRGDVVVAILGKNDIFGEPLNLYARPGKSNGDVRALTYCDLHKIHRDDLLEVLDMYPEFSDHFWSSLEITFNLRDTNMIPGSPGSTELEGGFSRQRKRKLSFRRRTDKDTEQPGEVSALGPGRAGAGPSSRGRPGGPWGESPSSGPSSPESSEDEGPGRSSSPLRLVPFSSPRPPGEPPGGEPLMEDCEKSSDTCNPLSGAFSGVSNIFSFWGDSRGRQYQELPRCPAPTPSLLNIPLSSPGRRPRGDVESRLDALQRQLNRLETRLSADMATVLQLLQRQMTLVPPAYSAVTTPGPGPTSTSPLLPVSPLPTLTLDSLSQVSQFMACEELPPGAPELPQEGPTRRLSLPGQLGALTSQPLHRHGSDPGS

This test has as its target human ether-à-go-go-related gene (hERG) potassium channel (human, UniProt Q12809). As to the kind of experiment: primary screen, population patch clamp on CHO cells stably expressing hERG.
For the compound `CC(C)n1c(-c2ccc(C(C)(C)C)cc2)n[nH]c1=S`, the “hERG current change (%, negative = inhibition) at 10uM” value was determined as 10.5%.

With `COc1cccc2sc(=NC(=O)CCS(=O)(=O)c3ccc(C)cc3)n(C)c12`, the “hERG current change (%, negative = inhibition) at 10uM” value was 8.32%.

Turning to `O=C(c1ccco1)N1CCN(C(=O)N2CCCC2)CC1`, the “hERG current change (%, negative = inhibition) at 10uM” value is on record as -8.27%.

In the case of `COC(=O)c1c(C(=O)OC)c(C)n(Cc2cccnc2)c1C`, the “hERG current change (%, negative = inhibition) at 10uM” value was -5.53%.

On to `CC1CCCCN1CCCNC(=O)c1ccc(N2CCCC2=O)cc1` (stereo not drawn), for which the “hERG current change (%, negative = inhibition) at 10uM” value is 14.4%.

Turning to `COc1ccc(/C=N/NC(=O)c2cccc([N+](=O)[O-])c2)cc1O`, the “hERG current change (%, negative = inhibition) at 10uM” value worked out at 0.427%.

On to `COc1cc(OC)c(N(C)S(=O)(=O)c2cccc(C(=O)NC(C)C3CC4CCC3C4)c2)cc1Cl` (stereo not drawn), for which the “hERG current change (%, negative = inhibition) at 10uM” value is listed as -2.47%.

Take `Nc1[nH]nc2ncc3cc4ccccc4nc3c12`: the “hERG current change (%, negative = inhibition) at 10uM” value stood at 26.8%.

For `O=c1c2cc(Br)ccc2nc(-c2cccc(C(F)(F)F)c2)n1O`, the “hERG current change (%, negative = inhibition) at 10uM” value is given as 24.4%.

As to `COc1cccc(N2C(=O)C3NN=C(C(=O)CN4C(=O)c5ccccc5C4=O)C3C2=O)c1` (stereo not drawn), the “hERG current change (%, negative = inhibition) at 10uM” value worked out at 9.7%.

For the compound `CCOc1ccc(C(CC(=O)O)NC(=O)c2sc3ccccc3c2Cl)cc1` (stereo not drawn), the “hERG current change (%, negative = inhibition) at 10uM” value is on record as 12.5%.

`O=C(CN(Cc1ccco1)C(=O)CNS(=O)(=O)c1ccc(F)cc1)NCc1ccc(F)cc1`: the “hERG current change (%, negative = inhibition) at 10uM” value is recorded as -30.8%.

As for `O=C(NC(=S)Nc1ccc(Br)cn1)c1cncc(Br)c1`, the “hERG current change (%, negative = inhibition) at 10uM” value was found to be 11.3%.

Regarding `COc1ccc(N(CC(=O)NC2CCCC2)S(=O)(=O)c2c(C)[nH]c(=O)[nH]c2=O)cc1`, the “hERG current change (%, negative = inhibition) at 10uM” value was 10.2%.

In the case of `Cc1ccccc1CC(=O)N1CCN(C(=O)c2ccco2)CC1`, the “hERG current change (%, negative = inhibition) at 10uM” value was 6.8%.

Regarding `O=C(CNCCC1=CCCCC1)Nc1ccccc1N1CCCCCC1.O=C(O)C(=O)O`, the “hERG current change (%, negative = inhibition) at 10uM” value is listed as -4.2%.

For `COC(=O)c1nn(-c2cccc(C(F)(F)F)c2)ccc1=O`, the “hERG current change (%, negative = inhibition) at 10uM” value is 1.6%.

As for `Clc1ccc(Oc2nc3ccccc3n3cccc23)cc1`, the “hERG current change (%, negative = inhibition) at 10uM” value turned out to be 18%.

Consider `CC(=O)Nc1ccc(C(=O)Nc2nc(-c3cc(C)n(Cc4ccccc4)c3C)cs2)cc1`, for which the “hERG current change (%, negative = inhibition) at 10uM” value amounted to 11%.

For the compound `O=C(CN(Cc1ccccc1)S(=O)(=O)c1ccc(F)cc1)NCCC1=CCCCC1`, the “hERG current change (%, negative = inhibition) at 10uM” value was -0.583%.

Regarding `O=C(O)c1cc2c(cc1NC(=O)c1ccccc1OC(F)F)OCCCO2`, the “hERG current change (%, negative = inhibition) at 10uM” value is 24.4%.

In the case of `COc1ccccc1C(CNC(=O)CN(C)S(=O)(=O)c1ccc(C)cc1)N1CCCC1` (stereo not drawn), the “hERG current change (%, negative = inhibition) at 10uM” value was -28.6%.

With `Cc1onc(-c2c(F)cccc2Cl)c1C(=O)N(C)C1CCCCC1`, the “hERG current change (%, negative = inhibition) at 10uM” value was 2.65%.

On to `Cc1nc2ccccc2n1CCCOc1ccccc1`, for which the “hERG current change (%, negative = inhibition) at 10uM” value was -17.9%.

(Values after article PMC4336329 (PLoS ONE, 2015).)
